Laboratory results: PubChem BioAssay AID1768 (National Center for Advancing Translational Sciences (NCATS), 2009)
Several values for one entry are separate records, joined by “and”; a condition that tells them apart may be missing. Identical values can stand only once. The campaign covered roughly 270,000 compounds. About 620 (0.23%) were called active. The shares of active, inactive and inconclusive entries below differ from those in the screen. Calls come from the whole dose curve; as a rule, active = well fitted inhibition curve with a large enough effect in the polarisation, with a control signal flat (not every such curve was filed as active); inconclusive = small, poorly fitted or top-dose-only effect, or effect the other way, or a change in a side signal; inactive = no such curve, though single readings can be large or run the other way; the % refers to the polarisation. Potencies of inconclusive entries are doubtful fits and often do not repeat. A note “side channel” means that the fit belongs to a control or component signal, not to the main read-out.
Potency is the fitted concentration of half-maximal effect; tags give direction and shape of the fitted curve or compound fluorescence and quenching.
Throughout, for FP activity change, negative = inhibition: % of control where 0% means no effect.

These compounds were tested against Menin (Homo sapiens) (UniProt O00255) (assay: qHTS Assay for Inhibitors Targeting the Menin-MLL Interaction in MLL Related Leukemias: Competition With Texas Red Labeled MLL-derived Mutant Peptide). Details: fluorescence polarization; FP activity change, negative = inhibition: at 61.6 µM (top of the series).
Chain of UniProt O00255 (O00255 whole entry, looked up): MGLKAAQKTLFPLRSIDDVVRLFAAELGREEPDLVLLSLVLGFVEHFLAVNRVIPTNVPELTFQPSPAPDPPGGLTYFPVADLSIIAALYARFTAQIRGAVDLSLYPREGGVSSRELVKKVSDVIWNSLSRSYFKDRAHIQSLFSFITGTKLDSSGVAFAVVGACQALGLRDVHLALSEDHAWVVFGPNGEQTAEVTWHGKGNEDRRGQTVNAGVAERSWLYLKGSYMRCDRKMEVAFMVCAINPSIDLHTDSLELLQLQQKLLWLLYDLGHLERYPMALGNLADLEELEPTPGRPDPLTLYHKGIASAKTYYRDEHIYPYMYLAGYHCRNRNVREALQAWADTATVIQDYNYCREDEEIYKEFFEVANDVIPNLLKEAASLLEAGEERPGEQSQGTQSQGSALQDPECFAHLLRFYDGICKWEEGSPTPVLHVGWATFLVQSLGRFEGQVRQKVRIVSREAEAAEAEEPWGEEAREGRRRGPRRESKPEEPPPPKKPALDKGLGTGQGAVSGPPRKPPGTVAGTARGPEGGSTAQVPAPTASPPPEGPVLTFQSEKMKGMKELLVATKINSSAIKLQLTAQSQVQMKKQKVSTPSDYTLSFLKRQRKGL
With `CCNC(=S)N/N=C/c1sc(N2CCCCC2)nc1-c1cccs1` the Potency was inconclusive: 8.91 µM [quencher, side channel, partial curve, poor fit].
In the case of `COC(=O)c1ccc(C(=O)OC)c(NC(=O)CN(C)Cc2ccccc2)c1`, the Potency is reported as inconclusive: 3.55 µM [fluorescent, side channel, full curve, poor fit].
For `CN1/C(=C\P(=O)(N(C)C)N(C)C)C(C)(C)c2ccccc21`, the Potency was inconclusive: 25.1 µM [fluorescent, side channel, partial curve].
With `N#Cc1cc(NC(=O)c2ccc(F)cc2)c(=O)n2c1[nH]c1ccccc12` the Potency was inconclusive: 22.4 µM [quencher, side channel, partial curve].
For `COc1cc(/C=C2\SC(=O)N(Cc3ccc(Cl)cc3)C2=O)cc([N+](=O)[O-])c1O`, the Potency was inconclusive: 11.2 µM [quencher, side channel, partial curve].
With `CC(C)CNC(=O)C(=O)NCC(c1ccc2c(c1)OCO2)N1CCOCC1` (configuration not stated) the Potency was inconclusive: 20 µM [inhibitor, partial curve].
`Cc1cc(Cl)ccc1OCCCC(=O)OCC(N)=O` was tested, and the Potency was inconclusive: 39.8 µM [inhibitor, single point].
With `O=C(c1ccco1)N1CCN(C(=O)c2ccc(COc3ccc4c(c3)CCC4)o2)CC1` the Potency was inconclusive: 31.6 µM [inhibitor, single point].
`O=C(Nc1ccc(Br)c(C(F)(F)F)c1)c1ccccc1` was tested, and the Potency was inconclusive: 15.8 µM [quencher, side channel, partial curve].
`O=C(/C=C/c1ccc(O)c(O)c1)c1ccc(S(=O)(=O)N2CCCCCC2)cc1` was tested, and the Potency was inconclusive: 22.4 µM [quencher, partial curve, poor fit].
In the case of `COc1ccccc1C1CC(c2cccc(NS(C)(=O)=O)c2)=NN1S(=O)(=O)c1ccccc1` (configuration not stated), the Potency is reported as inconclusive: 31.6 µM [fluorescent, side channel, partial curve].
With `Clc1ccc(/C=N/Nc2ncnc3ccccc23)cc1Cl` the Potency was inconclusive: 28.2 µM [quencher, side channel, partial curve].
`Cc1ccc2oc(-c3cccc(NC(=O)c4cc(-n5cnnc5)ccc4Cl)c3)nc2c1` was tested, and the “FP activity change, negative = inhibition” value was inactive: 41.7%.
For `Cc1nn(C)cc1/C=N\NC(=O)c1ccc(Cn2cc(Cl)cn2)cc1`, the “FP activity change, negative = inhibition” value was inactive: 6.51%.
For `O=[N+]([O-])c1ccc(C2CN=C(Nc3ccccc3)S2)cc1` (configuration not stated), the Potency was inconclusive: 31.6 µM [quencher, side channel, single point].
For `COc1cccc(-c2cc3nc4c(c(N5CCC6(CC5)OCCO6)n3n2)CCC4)c1`, the Potency was inconclusive: 1.58 µM [fluorescent, side channel, full curve].
`CC1=NN(C(N)=S)C(=O)C1N=Nc1cc(Cl)ccc1Cl` (configuration not stated) was tested, and the Potency was inconclusive: 8.91 µM [quencher, side channel, partial curve].
With `CCN(CC)C(=O)CSc1nc(-c2ccco2)cc(C(F)(F)F)c1C#N` the “FP activity change, negative = inhibition” value was inactive: -10.1%.
For `O=C(/C=C/C#Cc1cccc(NS(=O)(=O)c2ccccc2)c1)NO`, the Potency was inconclusive: 7.94 µM [quencher, side channel, partial curve].
`Cc1ccc(C(=O)N2CC(=O)Nc3ccc(C)cc3C2c2ccccc2)cc1` (configuration not stated) was tested, and the Potency was inconclusive: 2.82 µM [inhibitor, full curve].
With `S=C(NCCc1c[nH]c2ccccc12)NC1CCCC1` the Potency was inconclusive: 39.8 µM [quencher, side channel, single point].
In the case of `CCC(C)[C@H](NC(=O)OC(C)(C)C)C(=O)N/N=C/c1cccc2nccnc12` (some centres not stated), the “FP activity change, negative = inhibition” value is reported as inactive: 8.52%.
For `NC(=O)C1CC(=O)N(c2ccc(OCc3c(Cl)cccc3Cl)cc2)C1` (configuration not stated), the Potency was inconclusive: 39.8 µM [fluorescent, side channel, single point].
With `COc1cccc(N2CCN(S(=O)(=O)c3ccc(-n4cnnn4)cc3)CC2)c1` the “FP activity change, negative = inhibition” value was inactive: 0.441%.
With `O=S(=O)(c1ccc(Br)cc1)N1CCN(c2ccc3nnc(-c4ccccc4)n3n2)CC1` the “FP activity change, negative = inhibition” value was inactive: -6.56%.
For `CCOc1ccc(NCc2cc3c(C(C)(C)C)nn(-c4ccccc4)c3[nH]c2=O)cc1`, the Potency was inconclusive: 31.6 µM [quencher, side channel, partial curve].
For `c1ccc(-c2ncnc3nc4n(c23)CCC4)cc1`, the Potency was inconclusive: 35.5 µM [quencher, side channel, single point].
With `CCn1c(=O)n(CC)c2cc(S(=O)(=O)NCCOc3ccccc3)c(C)cc21` the Potency was inconclusive: 14.1 µM [inhibitor, partial curve, poor fit].
With `O=C(Nc1nnc(SCc2ccccc2)s1)c1cc2c(s1)CCCC2` the Potency was inconclusive: 25.1 µM [quencher, side channel, partial curve].
With `O=C(NCc1ccco1)C12CN(Cc3ccccc3)CC1C(c1cccc([N+](=O)[O-])c1)=NO2` (configuration not stated) the Potency was inconclusive: 10 µM [inhibitor, partial curve].
`CC(=O)c1cccc(NC(=O)CN2CCc3cc4c(cc3C2C)OCCCO4)c1` (configuration not stated) was tested, and the Potency was inconclusive: 7.94 µM [inhibitor, single point].
In the case of `COc1ccc(C)cc1-n1nnnc1SCc1nc2ccccc2c(=O)[nH]1`, the Potency is reported as inconclusive: 2.82 µM [inhibitor, full curve, poor fit].
With `COc1ccc([C@]23Cc4cc(C#N)ccc4C(O2)c2c(c4ccc(OC)cc4oc2=O)O3)cc1` the Potency was inconclusive: 2 µM [quencher, side channel, partial curve].
With `O=[N+]([O-])c1ccc(O)c(C=Nc2ccc3oc(Cc4ccc(Cl)cc4)nc3c2)c1` the Potency was inconclusive: 31.6 µM [quencher, side channel, partial curve].
In the case of `N=C1/C(=C\c2ccc(-c3cccc(Cl)c3)o2)C(=O)N=C2SC=C(c3ccccc3)N12`, the Potency is reported as inconclusive: 39.8 µM [quencher, partial curve, poor fit].
For `CCc1nnc(NC(=O)Cc2ccc(Br)cc2)s1`, the Potency was inconclusive: 39.8 µM [fluorescent, side channel, single point].
In the case of `CC(C)CC(=O)Nc1cccc(-c2cn3ccsc3n2)c1`, the “FP activity change, negative = inhibition” value is reported as inactive: 14%.
With `COc1ccc(F)cc1C(=O)C1CCCN(Cc2cn(C)c3ccccc23)C1` (configuration not stated) the Potency was inconclusive: 17.8 µM [fluorescent, side channel, partial curve].
For `OC(COc1ccccc1)CN1CCN(C(c2ccccc2)c2ccccc2)CC1` (configuration not stated), the Potency was inconclusive: 3.55 µM [fluorescent, side channel, partial curve].
`OCCN1CCN(CC/C=C2/c3ccccc3Sc3ccc(C(F)(F)F)cc32)CC1` was tested, and the Potency was inconclusive: 10 µM [inhibitor, partial curve] and inconclusive: 7.08 µM [fluorescent, side channel, partial curve].
`COc1cccc(CNS(=O)(=O)c2ccc(S(=O)(=O)N3CCCC3)cc2)c1` was tested, and the Potency was inconclusive: 28.2 µM [quencher, side channel, partial curve].
For `O=C(NC(NNc1ccc([N+](=O)[O-])cc1)(C(F)(F)F)C(F)(F)F)c1ccc(F)cc1`, the Potency was inconclusive: 39.8 µM [quencher, side channel, single point].
In the case of `CCN(C(=O)c1ccc(C)c(Br)c1)c1ccccc1`, the Potency is reported as inconclusive: 25.1 µM [fluorescent, side channel, single point].
In the case of `CCCCn1nnnc1NCc1cc(Cl)c(OC)c(OC)c1`, the Potency is reported as inconclusive: 11.2 µM [inhibitor, partial curve].
`CC(C)c1nc(N2CCN(C(=O)c3ccco3)CC2)c(C#N)c2c1COC(C)(C)C2` was tested, and the Potency was inconclusive: 10 µM [inhibitor, partial curve].
With `COc1c(-c2coc3cc4c(cc3c2=O)CC(O)C(C)(C)O4)ccc2c1C=CC(C)(C)O2` (configuration not stated) the “FP activity change, negative = inhibition” value was inactive: -3.44%.
With `COc1ccc(NC(=S)NCCc2c[nH]c3ccccc23)c(OC)c1` the Potency was inconclusive: 31.6 µM [quencher, side channel, partial curve].
`COc1ccc(NC(=O)CSc2nnc(-c3ccco3)n2N)cc1Cl` was tested, and the Potency was inconclusive: 31.6 µM [fluorescent, side channel, single point].
For `COc1ccc(CCNC(=O)c2cc(-c3cc(C)ccc3O)n[nH]2)cc1OC`, the Potency was inconclusive: 39.8 µM [quencher, side channel, single point].
For `CCc1ccc(C(=O)CSc2nc3ccccc3c(=O)[nH]2)cc1`, the Potency was inconclusive: 39.8 µM [fluorescent, side channel, single point].
`C=CCc1ccc(OCCN2CCc3ccccc3C2)c(OC)c1` was tested, and the Potency was inconclusive: 39.8 µM [inhibitor, single point].
With `COc1cc(CNc2ccc(N3CCOCC3)cc2)ccc1OCC(=O)NC(C)(C)C` the Potency was inconclusive: 39.8 µM [inhibitor, single point].
For `O=C(Nc1ccsn1)c1ccc(Cl)cc1Cl`, the Potency was inconclusive: 11.2 µM [inhibitor, partial curve].
With `CC(Sc1nnc(NC2CCCCC2)s1)C(=O)Nc1ccc2c(c1)C(=O)c1ccccc1C2=O` (configuration not stated) the Potency was inconclusive: 8.91 µM [quencher, side channel, partial curve].
For `CCOC(=O)N1CCN(C(=O)Nc2ccc3nc(C)sc3c2)CC1`, the Potency was inconclusive: 39.8 µM [inhibitor, single point].
With `O=C(CCN1C(=O)c2ccccc2C1=O)NC(=S)Nc1ccccc1Cl` the Potency was inconclusive: 10 µM [quencher, side channel, partial curve].
With `COC(=O)c1cc(S(=O)(=O)NCCc2ccccc2)c[nH]1` the Potency was inconclusive: 22.4 µM [inhibitor, partial curve].
